The supplement of paper PMC11417369
± gives the standard deviation of the averaged measurements. Some of the results follow.

tested on: PfAP2-G AP2 domain (GST-tagged); test: gcPBM binding intensity (ln(normalized median fluorescence intensity)); higher = stronger DNA binding
Outline: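 Binding intensity is the highest Masliner-normalised natural-log median intensity over replicate spots in either probe orientation. To obtain it, GST-tagged P. falciparum DNA-binding domains made in E. coli were incubated for 1 h on an Agilent 4 × 180k array of primer-extended double-stranded 36-bp intergenic genomic probes plus negative controls. Detection used Alexa488 anti-GST antibody with scanning at 488 nm.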

Sequence | gcPBM binding intensity (ln)
AATAATATATTATATGCATGTGTATAATTTGATATA [TGCATGCA_site1058] | 10.1 ± 0.23
AAATACTTATTCGTGGTGCAACAATTTTAAAAATTA | 10.5 ± 0.33
ATTAAAATAATACGTACACACATGTATAATACATAT [CACACA_site1005] | 11.5 ± 0.91
ATTATGAATTTAAGACGTACAAAAAATTTTTATTCA [XGTACX_site5682] | 11.4 ± 0.88
ACAAGTATTCCTTTTGCACACCTTTCTGCACCTTAT [CACACA_site3873] | 10.4 ± 0.19
TAACAACGATACAATTGTACAAATTATATATATATA [XGTACX_site4687] | 10.6 ± 0.31
CAAAAAAAGTTATACACACACACACGGATATAAATA [CACACA_site6619] | 10.2 ± 0.11
TATTACATAATATATGTACACACGCAAATACTTATA [CACACA_site7994] | 11.4 ± 0.85
AGCAAGACGGGGTGCACACAAACTAATATGCCGAAT [CACACA_site159] | 10.8 ± 0.57
AAAATACAGAAACACACACACACACCCATATATATA [CACACA_site3559] | 9.99 ± 0.16
TTTTATAAAACATGTAGTACATGAAAAAAAAAATTT [XGTACX_site1626] | 11.6 ± 1
GAAAAGTATAAAAAACGTACAAGTTTTATTTTCACA [XGTACX_site4604] | 11.4 ± 1.1
CCCCTATAAATAGGGTGTACTAATAAATATTTTTAA [XGTACX_site1244] | 11.6 ± 0.91
ACGGGCGACACATAAGTGCGCAAAAAAAAAAAAATA [GTGCAC_site9688] | 10.4 ± 0.46
TAAAATAAAAAGTTTACACACATATATAACTTTAAT [CACACA_site6456] | 9.81 ± 0.13
CATATTAAGATGTGTACACATTTTTATTTTTTTTTT [CACACA_site4425] | 11.6 ± 0.93
GTATTCATTCCTTGAGTGCAATTGCAATAAATAAAA | 10.4 ± 0.41
AATATATAAATATATATAAATAAATATATATATAAA [CACACA_negctrl_site49] | 9.34 ± 0.15
AAATGGAAATTAATATGTACATATTTATAAGTATGA [XGTACX_site1774] | 11.2 ± 0.67
TCCTATCATTTATATTTTACTACATAATATTGATAA [GTGCAC_negctrl_site286] | 9.96 ± 0.12
AAATGACGAAATAAAATCATAAATTAAAATAAATAA [CACACA_negctrl_site655] | 9.62 ± 0.12
ATAGCATTTCACAAATGTACATAAAAAAATAAAAAT [XGTACX_site402] | 11.3 ± 0.81

Sequence | gcPBM binding intensity (ln)
TAAAACAAAATGGTAACACACACATATATATATATA [CACACA_site8590] | 10.1 ± 0.27
TTTTACAAATATTTCTGTACACATTCTCATATAATT [XGTACX_site1974] | 11.5 ± 0.88
TTTTTTAATTAATTACCTTTGAATGTGTATTAGGAC [GTGCAC_negctrl_site651] | 10.2 ± 0.22
ATGTTTCTATAGATTTGTACATATTTCATATGAATA [XGTACX_site1053] | 10.9 ± 0.59
TTATTTTTTGTATGAACACACAACTTAATTATGATG [CACACA_site2448] | 10.3 ± 0.11
TCTTTTCTTTTGTGTGTGCACATATAAGCATGAAAC [GTGCAC_site9910] | 10.8 ± 0.67
ACTTAATTTTTTTATTGTACATGTAAATGAGGGAAA [XGTACX_site6305] | 11.2 ± 0.57
TATTTTAATAAGAATAAATGAAATGAAATGAAATAT [CACACA_negctrl_site823] | 9.865 ± 0.092
TATATATATATATATTGTACAAAGATTAATATATAA [XGTACX_site8433] | 10.8 ± 0.45
ACATCCTATAAATAGAGTACGTAAATTATAATACAC [XGTACX_site5338] | 11.4 ± 0.97
TAGTGTGCCAAATTAGCACACACATATATACATGAA [CACACA_site8910] | 10.2 ± 0.36
TTTTCTAATTAATATTGTACATAAATGTATATATAT [XGTACX_site4749] | 10.9 ± 0.45
GTTTTTATCATATCATGTACGTATTTTATTTTTTTT [XGTACX_site8643] | 11.6 ± 0.93
CTTCTGGACAGGAATGCACACATTTTTTTTTCTTTT [CACACA_site1807] | 10.5 ± 0.17
ATCAAAGATAAATTTACACACATATAAATATAAATA [CACACA_site7409] | 9.62 ± 0.028
CATATATACTCATACACACACACACCGACACAGACA [CACACA_site5026] | 10.4 ± 0.34
ATGATATGGATAAATACACACAATATAATAATGTCT [CACACA_site1433] | 9.99 ± 0.042
TATGATGAGATAACAAAAGTTGTACTTTTTTTTTTT [CACACA_negctrl_site1172] | 11.5 ± 0.98
AATATTTAACACCTTATACACACTTTCTTCCTTTTT [CACACA_site785] | 9.86 ± 0.2
ATATTTTTTAGGGTCACACATACTTATTATATAAAT [CACACA_site4926] | 10.7 ± 0.4
AGGAAAACAAAAGATGCATGCTAATTTTCCTCGCGT [TGCATGCA_site627] | 9.69 ± 0.17
CTGAAGAAACTACAACGTACAAAATATGTATATATT [XGTACX_site3779] | 10.8 ± 0.49

Sequence | gcPBM binding intensity (ln)
AAAGCACGCAAGAATACACACAAATATTATAAAAAA [CACACA_site6206] | 10.1 ± 0.24
ATCCCAGTAATATATAGTACATAACTATAAGAGAAT [XGTACX_site6909] | 10.8 ± 0.59
TAAAAAATTATAAAATGTACATAAAAAAAAAAAAAA [XGTACX_site3376] | 11.1 ± 1.1
AAAATTAATAAATGAGAAAAAAGGATGAATAATGAG [CACACA_negctrl_site1614] | 10.22 ± 0.071
AGAAAAAAAATGTATACACACAAATATAAAGAAGGA [CACACA_site3806] | 10.08 ± 0.028
TTTATTAATTAAACCATACACACATAATTTTTTTAT [CACACA_site842] | 9.975 ± 0.064
AAACGTGCGTATATGTGTACGCATATATATATATAT [XGTACX_site5252] | 11.6 ± 1
TACATAAAATACCATGCATGCTAGTAAAAAAAAAAA [TGCATGCA_site650] | 9.81 ± 0.17
TAATATATTTATAGAGCATGCAACGTAATATTATTA [TGCATGCA_site863] | 9.835 ± 0.035
ATGGAAATAAAAAAAAAAAAAAAAAAAAATATATAT [GTGCAC_negctrl_site67] | 9.61 ± 0.21
TAGCCCACATTTAATGGTACAGTGAGTATATATATG [XGTACX_site8044] | 11.1 ± 0.66
AAAATGCATTTGATGTGTACGCATTATAAAGAACAA [XGTACX_site4203] | 11.6 ± 1
CAAATAGCTAGCTGTGCACACAAACATATTTTCCAA [CACACA_site879] | 10.3 ± 0.15
CACAAACAAAGACACACACACACACGCACAAAAATG [CACACA_site7193] | 10.6 ± 0.45
AACAATTAGAACTTTGCACACTTCTATATATTTTGT [CACACA_site674] | 9.91 ± 0.2
TGTATTTATAGACACACACACTTTCTTTTTTTAAGA [CACACA_site7010] | 10.09 ± 0.049
TACATATATAAAAAAACACACACATATATATATATA [CACACA_site8315] | 9.92 ± 0.31
TGTATAATAAGGAAGAGTACAAGTAAATACACACAT [XGTACX_site2084] | 11.3 ± 0.67
TATATATATAACATTGTACACACAAAGAAATAATAT [CACACA_site8998] | 11.3 ± 0.82
ATCGGTATATTATTACATGAATAAACTTACACACAC [TGCATGCA_negctrl_site21] | 10.8 ± 0.7
TTGTATTAATAATTTTTTATATTATAGTTTATAATA [GTGCAC_negctrl_site130] | 9.77 ± 0.042
TTTTTTCTTCGTGTATTAAGTCACAATAGGAAAAAA [GTGCAC_negctrl_site644] | 10.3 ± 0.4

Sequence | gcPBM binding intensity (ln)
AAAAAAAAAGAATGTGAACACACACCGTGAATATAA [CACACA_site8342] | 10.03 ± 0.057
TATATATAAAATGTATGTACATATTTATTTATATAG [XGTACX_site657] | 11.2 ± 0.77
AAGTGAAATAAAATATGTACATATATGTATATATAA [XGTACX_site4473] | 11.2 ± 0.65
CAAAATTATCAGAATCGTACATTTTTAACATATAAT [XGTACX_site7909] | 10.8 ± 0.58
AAAACTATATTAATGTGTACACATCAAAATATTAAT [XGTACX_site6767] | 11.6 ± 0.84
TAATATATTAAAAATAGTACATAAGAAAAATAAGTA [XGTACX_site7957] | 11.3 ± 0.86
TTACAAAACACTTATACACACATATATATATATATA [CACACA_site2716] | 10.1 ± 0.26
TATATATATTATATATGTACATATTGTATATTTTTG [XGTACX_site4564] | 11.1 ± 0.64
ATATTTATTTTAATTTTTCTATATAAACTATTATGA [CACACA_negctrl_site739] | 9.79 ± 0.24
AGGAAGGAAATAAATCAACACACATATATTATATAT [CACACA_site8678] | 9.71 ± 0.19
TTTCTAAGAAAAAAAAAAAAAAAAAAAAAGATACAA [GTGCAC_negctrl_site525] | 9.69 ± 0.2
AAGGAGCCTATGAACACACACATGTACAGATATTAA [CACACA_site6107] | 11.1 ± 0.52
ATTATAAATATCAGTGCACACATTTCTACGCAAAGT [CACACA_site4420] | 10.4 ± 0.24
TATGTAAAATGTGTTTGTACTTATTTATTATATAAA [XGTACX_site2816] | 11.3 ± 0.96
AAGAACATATTATATACATGCATAATTCGATAGATT [TGCATGCA_site882] | 9.73 ± 0.071
AAAATTAGATTATGCACACACACTTAAAAATAATAA [CACACA_site1975] | 10.2 ± 0.18
ATAATACCCATTATCTTACAACAAAATGCAAACAAA [CACACA_negctrl_site1037] | 10.2 ± 0.24
AACATAATATCATATACACACAAAAATATTGAAATA [CACACA_site2160] | 9.97
TTATATAACTTTTCTAGTACTTGTATAAATTCCTAC [XGTACX_site3685] | 11 ± 0.38
AAAAAAAAAGAAAAACGTACGTTTATTTAATATATA [XGTACX_site4018] | 10.8 ± 0.4
TGTAGTCTGGAGAAAAGTACACAGTATCTGGTAGCT [XGTACX_site2012] | 11.5 ± 1
TATATATATATATAGGTGCTATAATTTATATACACA | 10.1 ± 0.52
